The supplement of paper PMC8728848
The list shows a part of the results.

Key:
Assay in all cases: glycan array binding signal (z-score within array); higher = stronger binding
Conditions in all cases: glycan notation: IUPAC condensed, linker removed
[1] = target: Neu5Ac(a2-6)Gal(b1-4)GlcNAc(b1-2)Man(a1-3)[Man(a1-6)]Man(b1-4)GlcNAc(b1-4)GlcNAc
In short: (§1)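 Glycan array data came from 3228 arrays in the Consortium for Functional Glycomics database, and only arrays with an available protein sequence were kept. Glycan names were put into IUPAC-condensed notation, and columns mapping to the same glycan were averaged. The binding signal is a within-array Z-score, averaged across arrays of one protein sequence run at different concentrations or buffers and across linkers. A negative Z-score can be read as non-binding.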

[2] = target: Neu5Ac(a2-6)Gal(b1-4)GlcNAc(b1-2)Man(a1-3)[Neu5Ac(a2-3)Gal(b1-4)GlcNAc(b1-2)Man(a1-6)]Man(b1-4)GlcNAc(b1-4)GlcNAc
In short: as §1

[3] = target: Neu5Ac(a2-6)Gal(b1-4)GlcNAc(b1-2)Man(a1-3)[Neu5Ac(a2-6)Gal(b1-4)GlcNAc(b1-2)Man(a1-6)]Man(b1-4)GlcNAc(b1-4)GlcNAc
In short: as §1

[4] = target: Neu5Ac(a2-6)Gal(b1-4)GlcNAc(b1-2)Man(a1-3)[Neu5Ac(a2-6)Gal(b1-4)GlcNAc(b1-2)Man(a1-6)]Man(b1-4)GlcNAc(b1-4)[Fuc(a1-6)]GlcNAc
In short: as §1

[5] = target: Neu5Ac(a2-6)Gal(b1-4)GlcNAc(b1-2)Man(a1-6)Man(b1-4)GlcNAc(b1-4)GlcNAc
In short: as §1

[6] = target: Neu5Ac(a2-6)Gal(b1-4)GlcNAc(b1-2)Man(a1-6)[Gal(b1-4)GlcNAc(b1-2)Man(a1-3)]Man(b1-4)GlcNAc(b1-4)GlcNAc
In short: as §1

[7] = target: Neu5Ac(a2-6)Gal(b1-4)GlcNAc(b1-2)Man(a1-6)[GlcNAc(b1-2)Man(a1-3)]Man(b1-4)GlcNAc(b1-4)GlcNAc
In short: as §1

[8] = target: Neu5Ac(a2-6)Gal(b1-4)GlcNAc(b1-2)Man(a1-6)[Man(a1-3)]Man(b1-4)GlcNAc(b1-4)GlcNAc
In short: as §1

[9] = target: Neu5Ac(a2-6)Gal(b1-4)GlcNAc(b1-2)[Neu5Ac(a2-6)Gal(b1-4)GlcNAc(b1-4)]Man(a1-3)[GlcNAc(b1-4)][Neu5Ac(a2-6)Gal(b1-4)GlcNAc(b1-2)[Neu5Ac(a2-6)Gal(b1-4)GlcNAc(b1-6)]Man(a1-6)]Man(b1-4)GlcNAc(b1-4)GlcNAc
In short: as §1

[10] = target: Neu5Ac(a2-6)Gal(b1-4)GlcNAc(b1-2)[Neu5Ac(a2-6)Gal(b1-4)GlcNAc(b1-4)]Man(a1-3)[GlcNAc(b1-4)][Neu5Ac(a2-6)Gal(b1-4)GlcNAc(b1-4)Man(a1-6)]Man(b1-4)GlcNAc(b1-4)GlcNAc
In short: as §1

[11] = target: Neu5Ac(a2-6)Gal(b1-4)GlcNAc(b1-2)[Neu5Ac(a2-6)Gal(b1-4)GlcNAc(b1-6)]Man(a1-6)[Neu5Ac(a2-6)Gal(b1-4)GlcNAc(b1-2)Man(a1-3)][GlcNAc(b1-4)]Man(b1-4)GlcNAc(b1-4)GlcNAc
In short: as §1

[12] = target: Neu5Ac(a2-6)Gal(b1-4)GlcNAc(b1-3)Gal(b1-3)GlcNAc
In short: as §1

[13] = target: Neu5Ac(a2-6)Gal(b1-4)GlcNAc(b1-3)Gal(b1-4)GlcNAc
In short: as §1

[14] = target: Neu5Ac(a2-6)Gal(b1-4)GlcNAc(b1-3)Gal(b1-4)GlcNAc(b1-2)Man(a1-3)[Neu5Ac(a2-6)Gal(b1-4)GlcNAc(b1-3)Gal(b1-4)GlcNAc(b1-2)Man(a1-6)]GalNAc
In short: as §1

[15] = target: Neu5Ac(a2-6)Gal(b1-4)GlcNAc(b1-3)Gal(b1-4)GlcNAc(b1-3)Gal(b1-4)GlcNAc
In short: as §1

[16] = target: Neu5Ac(a2-6)Gal(b1-4)GlcNAc(b1-3)Gal(b1-4)GlcNAc(b1-3)Gal(b1-4)GlcNAc(b1-2)Man(a1-3)[Neu5Ac(a2-6)Gal(b1-4)GlcNAc(b1-3)Gal(b1-4)GlcNAc(b1-3)Gal(b1-4)GlcNAc(b1-2)Man(a1-6)]GalNAc
In short: as §1

[17] = target: Neu5Ac(a2-6)Gal(b1-4)GlcNAc(b1-3)Gal(b1-4)GlcNAc(b1-3)GalNAc
In short: as §1

[18] = target: Neu5Ac(a2-6)Gal(b1-4)GlcNAc(b1-3)Gal(b1-4)GlcNAc(b1-3)[Neu5Ac(a2-6)Gal(b1-4)GlcNAc(b1-3)Gal(b1-4)GlcNAc(b1-6)]GalNAc
In short: as §1

[19] = target: Neu5Ac(a2-6)Gal(b1-4)GlcNAc(b1-3)Gal(b1-4)GlcNAc(b1-6)[Gal(b1-3)]GalNAc
In short: as §1

[20] = target: Neu5Ac(a2-6)Gal(b1-4)GlcNAc(b1-3)Gal(b1-4)[Fuc(a1-3)]GlcNAc(b1-3)Gal(b1-4)[Fuc(a1-3)]GlcNAc
In short: as §1

[21] = target: Neu5Ac(a2-6)Gal(b1-4)GlcNAc(b1-3)GalNAc
In short: as §1

[22] = target: Neu5Ac(a2-6)Gal(b1-4)GlcNAc(b1-3)[Neu5Ac(a2-6)Gal(b1-4)GlcNAc(b1-6)]GalNAc
In short: as §1

[23] = target: Neu5Ac(a2-6)Gal(b1-4)GlcNAc(b1-6)GalNAc
In short: as §1

[24] = target: Neu5Ac(a2-6)Gal(b1-4)GlcNAc(b1-6)[Gal(b1-3)GlcNAc(b1-3)]Gal(b1-4)Glc
In short: as §1

[25] = target: Neu5Ac(a2-6)Gal(b1-4)GlcNAc(b1-6)[Gal(b1-3)]GalNAc
In short: as §1

[26] = target: Neu5Ac(a2-6)Gal(b1-4)GlcNAc6S
In short: as §1

Neu5Ac(a2-6)GalNAc = target: Neu5Ac(a2-6)GalNAc
In short: as §1

[27] = target: Neu5Ac(a2-6)GalNAc(b1-4)GlcNAc
In short: as §1

[28] = target: Neu5Ac(a2-6)GalNAc(b1-4)GlcNAc6S
In short: as §1

[29] = target: Neu5Ac(a2-6)GlcNAc(b1-4)GlcNAc
In short: as §1

[30] = target: Neu5Ac(a2-6)GlcNAc(b1-4)GlcNAc(b1-4)GlcNAc
In short: as §1

B1: PX9961V-pdi-562-26-562 (Parabacteroides distasonis) (protein)
chain: EIFSEITTDNYYQNSNNIYAALVNNYAKAFSTGWSDARYFLQEVTADQLMIPTRGKHGYNGGEYVRLHEHKWTVEENFVYNGWAAPFQGIALCNNTLSDFENLDFSTFKLTEETKNEYIAELRALRVWNYMFLIDFFRHVPIVTDIEEVKAQSTPLEVFNFMESELLAILPDLPKNRGVSRFDQAGVASILVRLYLNAEKWIGISKYDECEQMAQAILDGKYGEYSIDPDYRGPFRSGINGYRSKENIMEFAIKKNYFEASWLYNMWMHYQDRYSLDNDWQGWNGGNLAPSRDLYGNLYQDKLGMPFEKFPDGDIRKKAFRVISNDGDYEGFFLMGTQYKFDYEKGYGFTDEVITGTEEYNGKPLVYVDQVGRFSEGETGLAKGSHVIYGEENTGYRLIKFPWLPQSKDLFQMNSIPEIRLAEIYYSLAECKYRSGDKIGAARLLDVVRKRYYKAEDWSKFSYESNISKLTDDEFVDELGREFIGERHRRIDLIRWNRFSEGAWWDKTPDATNQDVFPIPYRALNANPLLKQTTAGF
glycan array binding signal (z-score) [1]: -0.231
glycan array binding signal (z-score) [2]: -0.704
glycan array binding signal (z-score) [3]: -0.251
glycan array binding signal (z-score) [4]: -0.043
glycan array binding signal (z-score) [5]: -0.374
glycan array binding signal (z-score) [6]: -0.754
glycan array binding signal (z-score) [7]: -0.252
glycan array binding signal (z-score) [8]: 1.46
glycan array binding signal (z-score) [9]: 0.711
glycan array binding signal (z-score) [10]: 0.137
glycan array binding signal (z-score) [11]: 0.515
glycan array binding signal (z-score) [12]: -0.154
glycan array binding signal (z-score) [13]: -0.199
glycan array binding signal (z-score) [14]: 3.24
glycan array binding signal (z-score) [15]: -0.589
glycan array binding signal (z-score) [16]: 2.14
glycan array binding signal (z-score) [17]: -0.177
glycan array binding signal (z-score) [18]: -0.255
glycan array binding signal (z-score) [19]: -0.312
glycan array binding signal (z-score) [20]: 0.588
glycan array binding signal (z-score) [21]: 0.398
glycan array binding signal (z-score) [22]: -0.166
glycan array binding signal (z-score) [23]: -0.271
glycan array binding signal (z-score) [24]: -0.349
glycan array binding signal (z-score) [25]: -0.27
glycan array binding signal (z-score) [26]: -0.448
glycan array binding signal (z-score) (Neu5Ac(a2-6)GalNAc): -0.5
glycan array binding signal (z-score) [27]: -0.355
glycan array binding signal (z-score) [28]: -0.742
glycan array binding signal (z-score) [29]: -0.416
glycan array binding signal (z-score) [30]: -0.609
